Reference: the supplement of paper PMC4604168 (melanoma cell lines)
Some of the results follow. Repeats are few or missing, and single values can be far off.

system: MEL-HO; assay: cell count relative to DMSO control; melanoma cells; higher = more viable cells; settings: library dose: low library concentration; 72 h
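Also: cell number obtained by counting DAPI-stained nuclei in high-throughput microscope images with image analysis software, screen run in 1,536-well plates.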

SMILES | cell count [%]
NC(=O)c1ccc(N(C(N)=O)c2c(F)cccc2F)nc1-c1ccc(F)cc1F + Cn1cncc1[C@@](N)(c1ccc(Cl)cc1)c1ccc2c(c1)c(-c1cccc(Cl)c1)cc(=O)n2C [tipifarnib] (first compound 0.4 µM, partner dose 0.01 µM) | 89.9
NC(=O)c1ccc(N(C(N)=O)c2c(F)cccc2F)nc1-c1ccc(F)cc1F + CO[C@@H]1[C@H](N(C)C(=O)c2ccccc2)C[C@H]2O[C@]1(C)n1c3ccccc3c3c4c(c5c6ccccc6n2c5c31)C(=O)NC4 [Midostaurin] (first compound 0.4 µM, partner dose 0.08 µM) | 92.8
NC(=O)c1ccc(N(C(N)=O)c2c(F)cccc2F)nc1-c1ccc(F)cc1F + CN(NC(=O)CC(=O)NN(C)C(=S)c1ccccc1)C(=S)c1ccccc1 [STA4783] (first compound 0.4 µM, partner dose 0.006 µM) | 97.8
Cc1ccc(NC(=O)c2cccc(N(C)C)c2)cc1NC(=O)c1ccc(O)cc1 + O=C(O)c1ccc(-c2c[nH]c3ncc(-c4ccccc4)cc23)cc1C1CCCC1 [GSK650394] (first compound 2 µM, partner dose 0.16 µM) | 98.2
NC(=O)c1ccc(N(C(N)=O)c2c(F)cccc2F)nc1-c1ccc(F)cc1F + Cc1cc(N2CCOCC2)cc2[nH]c(-c3c(NC[C@@H](O)c4cccc(Cl)c4)cc[nH]c3=O)nc12 [BMS536924] (first compound 0.4 µM, partner dose 0.2 µM) | 87.4
NC(=O)c1ccc(N(C(N)=O)c2c(F)cccc2F)nc1-c1ccc(F)cc1F + COc1cc(Nc2ncc(F)c(Nc3ccc4c(n3)NC(=O)C(C)(C)O4)n2)cc(OC)c1OC [Tamatinib] (first compound 0.4 µM, partner dose 0.4 µM) | 90.2
CCCCCCCCc1ccc(CCC(N)(CO)CO)cc1 [fingolimod] + CN(C)S(=O)(=O)c1ccc2c(c1)/C(=C/c1cc3c([nH]1)CCCC3)C(=O)N2 [SU6656] (first compound 2 µM, partner dose 0.4 µM) | 85.6
CCCCCCCCc1ccc(CCC(N)(CO)CO)cc1 [fingolimod] + OCCn1cc(-c2cnc3nnn(Cc4ccc5ncccc5c4)c3n2)cn1 [PF04217903] (first compound 2 µM, partner dose 1 µM) | 93.3
NC(=O)c1ccc(N(C(N)=O)c2c(F)cccc2F)nc1-c1ccc(F)cc1F + NC(=O)Nc1cc(-c2cccc(F)c2)sc1C(=O)N[C@H]1CCCNC1 [AZD7762] (first compound 0.4 µM, partner dose 0.02 µM) | 97.7
NC(=O)c1ccc(N(C(N)=O)c2c(F)cccc2F)nc1-c1ccc(F)cc1F + O=C(O)c1ccc(-c2c[nH]c3ncc(-c4ccccc4)cc23)cc1C1CCCC1 [GSK650394] (first compound 0.4 µM, partner dose 0.16 µM) | 103
CCCCCCCCc1ccc(CCC(N)(CO)CO)cc1 [fingolimod] + COc1cc(Nc2ncc(F)c(Nc3ccc4c(n3)NC(=O)C(C)(C)O4)n2)cc(OC)c1OC [Tamatinib] (first compound 2 µM, partner dose 0.4 µM) | 76.9
CC(C)(C)c1cnc(CSc2cnc(NC(=O)C3CCNCC3)s2)o1 + O=C(Nc1cccc(Cl)c1)Nc1ncc(CCNc2ncnc3ccsc23)s1 [SNS314] (first compound 0.01 µM, partner dose 0.0008 µM) | 108
Cc1ccc(NC(=O)c2cccc(N(C)C)c2)cc1NC(=O)c1ccc(O)cc1 + COc1cc2c(Oc3ccc4[nH]c(C)cc4c3F)ncnc2cc1OCCCN1CCCC1 [cediranib] (first compound 2 µM, partner dose 0.4 µM) | 88.3
NC(=O)c1ccc(N(C(N)=O)c2c(F)cccc2F)nc1-c1ccc(F)cc1F + C[C@@H]1CCN(C(=O)CC#N)C[C@@H]1N(C)c1ncnc2[nH]ccc12 [CP690550] (first compound 0.4 µM, partner dose 1 µM) | 110
NC(=O)c1ccc(N(C(N)=O)c2c(F)cccc2F)nc1-c1ccc(F)cc1F + CC(C)(C)c1cnc(CSc2cnc(NC(=O)C3CCNCC3)s2)o1 [SNS-032] (first compound 0.4 µM, partner dose 0.01 µM) | 110
CCCCCCCCc1ccc(CCC(N)(CO)CO)cc1 [fingolimod] + CC1(C)NC(=O)N(c2ccc([N+](=O)[O-])c(C(F)(F)F)c2)C1=O [nilutamide] (first compound 2 µM, partner dose 1 µM) | 86.8
Cc1ccc(NC(=O)c2cccc(N(C)C)c2)cc1NC(=O)c1ccc(O)cc1 + CO[C@@H]1[C@H](N(C)C(=O)c2ccccc2)C[C@H]2O[C@]1(C)n1c3ccccc3c3c4c(c5c6ccccc6n2c5c31)C(=O)NC4 [Midostaurin] (first compound 2 µM, partner dose 0.08 µM) | 80.7

SMILES | cell count [%]
CCCCCCCCc1ccc(CCC(N)(CO)CO)cc1 [fingolimod] + Cc1cc(N2CCOCC2)cc2[nH]c(-c3c(NC[C@@H](O)c4cccc(Cl)c4)cc[nH]c3=O)nc12 [BMS536924] (first compound 2 µM, partner dose 0.2 µM) | 79.7
CCCCCCCCc1ccc(CCC(N)(CO)CO)cc1 [fingolimod] + O=C(O)c1ccc(-c2c[nH]c3ncc(-c4ccccc4)cc23)cc1C1CCCC1 [GSK650394] (first compound 2 µM, partner dose 0.16 µM) | 96.1
Cc1ccc(NC(=O)c2cccc(N(C)C)c2)cc1NC(=O)c1ccc(O)cc1 + OCCn1cc(-c2cnc3nnn(Cc4ccc5ncccc5c4)c3n2)cn1 [PF04217903] (first compound 2 µM, partner dose 1 µM) | 92
NC(=O)c1ccc(N(C(N)=O)c2c(F)cccc2F)nc1-c1ccc(F)cc1F + C=CCn1c(=O)c2cnc(Nc3ccc(N4CCN(C)CC4)cc3)nc2n1-c1cccc(C(C)(C)O)n1 [MK1775] (first compound 0.4 µM, partner dose 0.02 µM) | 99.4
CC(C)(C)c1cnc(CSc2cnc(NC(=O)C3CCNCC3)s2)o1 + CN(NC(=O)CC(=O)NN(C)C(=S)c1ccccc1)C(=S)c1ccccc1 [STA4783] (first compound 0.01 µM, partner dose 0.006 µM) | 90.2
Cc1ccc(NC(=O)c2cccc(N(C)C)c2)cc1NC(=O)c1ccc(O)cc1 + Cn1cncc1[C@@](N)(c1ccc(Cl)cc1)c1ccc2c(c1)c(-c1cccc(Cl)c1)cc(=O)n2C [tipifarnib] (first compound 2 µM, partner dose 0.01 µM) | 92
Cc1ccc(NC(=O)c2cccc(N(C)C)c2)cc1NC(=O)c1ccc(O)cc1 + NCC(=O)Nc1ccc(-n2nc(C(F)(F)F)cc2-c2ccc3c(ccc4ccccc43)c2)cc1 [OSU03012] (first compound 2 µM, partner dose 1 µM) | 89.2
CCCCCCCCc1ccc(CCC(N)(CO)CO)cc1 [fingolimod] + CN(NC(=O)CC(=O)NN(C)C(=S)c1ccccc1)C(=S)c1ccccc1 [STA4783] (first compound 2 µM, partner dose 0.006 µM) | 78.1
NC(=O)c1ccc(N(C(N)=O)c2c(F)cccc2F)nc1-c1ccc(F)cc1F + COc1cc2c(Oc3ccc4[nH]c(C)cc4c3F)ncnc2cc1OCCCN1CCCC1 [cediranib] (first compound 0.4 µM, partner dose 0.4 µM) | 98.5
NC(=O)c1ccc(N(C(N)=O)c2c(F)cccc2F)nc1-c1ccc(F)cc1F + O=C(Nc1cccc(Cl)c1)Nc1ncc(CCNc2ncnc3ccsc23)s1 [SNS314] (first compound 0.4 µM, partner dose 0.0008 µM) | 94.4
CC(C)(C)c1cnc(CSc2cnc(NC(=O)C3CCNCC3)s2)o1 + NC(=O)Nc1cc(-c2cccc(F)c2)sc1C(=O)N[C@H]1CCCNC1 [AZD7762] (first compound 0.01 µM, partner dose 0.02 µM) | 105
CN(NC(=O)CC(=O)NN(C)C(=S)c1ccccc1)C(=S)c1ccccc1 + COc1cc2c(Oc3ccc4[nH]c(C)cc4c3F)ncnc2cc1OCCCN1CCCC1 [cediranib] (first compound 0.006 µM, partner dose 0.4 µM) | 88.1
CCCCCCCCc1ccc(CCC(N)(CO)CO)cc1 [fingolimod] + C[C@@H]1CCN(C(=O)CC#N)C[C@@H]1N(C)c1ncnc2[nH]ccc12 [CP690550] (first compound 2 µM, partner dose 1 µM) | 98.4
CCCCCCCCc1ccc(CCC(N)(CO)CO)cc1 [fingolimod] + COc1cc2c(Oc3ccc4[nH]c(C)cc4c3F)ncnc2cc1OCCCN1CCCC1 [cediranib] (first compound 2 µM, partner dose 0.4 µM) | 99.5
CC(C)(C)c1cnc(CSc2cnc(NC(=O)C3CCNCC3)s2)o1 + NCC(=O)Nc1ccc(-n2nc(C(F)(F)F)cc2-c2ccc3c(ccc4ccccc43)c2)cc1 [OSU03012] (first compound 0.01 µM, partner dose 1 µM) | 94.7
CCCCCCCCc1ccc(CCC(N)(CO)CO)cc1 [fingolimod] + NCC(=O)Nc1ccc(-n2nc(C(F)(F)F)cc2-c2ccc3c(ccc4ccccc43)c2)cc1 [OSU03012] (first compound 2 µM, partner dose 1 µM) | 83.5
